Data published in the supplement of paper PMC8728848.
The other results are listed elsewhere or left out.

Assays:
Assay in all cases: glycan array binding signal (z-score within array); higher = stronger binding
Settings in all cases: glycan notation: IUPAC condensed, linker removed
[1] = target: Fuc(a1-2)[Gal(a1-3)]Gal(b1-4)GlcNAc(b1-2)Man(a1-3)[Fuc(a1-2)[Gal(a1-3)]Gal(b1-4)GlcNAc(b1-2)Man(a1-6)]Man(b1-4)GlcNAc(b1-4)[Fuc(a1-6)]GlcNAc
In short: (§1)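 Glycan array data came from 3228 arrays in the Consortium for Functional Glycomics database, and only arrays with an available protein sequence were kept. Glycan names were put into IUPAC-condensed notation, and columns mapping to the same glycan were averaged. The binding signal is a within-array Z-score, averaged across arrays of one protein sequence run at different concentrations or buffers and across linkers. A negative Z-score can be read as non-binding.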

[2] = target: Fuc(a1-2)[Gal(a1-3)]Gal(b1-4)GlcNAc(b1-3)GalNAc
In short: as §1

[3] = target: Fuc(a1-2)[Gal(a1-3)]Gal(b1-4)GlcNAc(b1-3)[Fuc(a1-2)[Gal(a1-3)]Gal(b1-4)GlcNAc(b1-6)]GalNAc
In short: as §1

[4] = target: Fuc(a1-2)[Gal(a1-3)]Gal(b1-4)GlcNAc(b1-6)GalNAc
In short: as §1

[5] = target: Fuc(a1-2)[Gal(a1-3)]Gal(b1-4)[Fuc(a1-3)]Glc
In short: as §1

[6] = target: Fuc(a1-2)[Gal(a1-3)]Gal(b1-4)[Fuc(a1-3)]GlcNAc
In short: as §1

[7] = target: Fuc(a1-2)[Gal(a1-3)]Gal(b1-4)[Fuc(a1-3)]GlcNAc(b1-3)GalNAc
In short: as §1

[8] = target: Fuc(a1-2)[Gal(a1-4)]Gal(b1-4)GlcNAc
In short: as §1

[9] = target: Fuc(a1-2)[GalNAc(a1-3)]Gal
In short: as §1

[10] = target: Fuc(a1-2)[GalNAc(a1-3)]Gal(b1-3)GalNAc(a1-3)[Fuc(a1-2)]Gal(b1-4)GlcNAc
In short: as §1

[11] = target: Fuc(a1-2)[GalNAc(a1-3)]Gal(b1-3)GalNAc(b1-3)Gal(a1-4)Gal(b1-4)Glc
In short: as §1

[12] = target: Fuc(a1-2)[GalNAc(a1-3)]Gal(b1-3)GlcNAc
In short: as §1

[13] = target: Fuc(a1-2)[GalNAc(a1-3)]Gal(b1-3)GlcNAc(b1-2)Man(a1-3)[Fuc(a1-2)[GalNAc(a1-3)]Gal(b1-3)GlcNAc(b1-2)Man(a1-6)]Man(b1-4)GlcNAc(b1-4)GlcNAc
In short: as §1

[14] = target: Fuc(a1-2)[GalNAc(a1-3)]Gal(b1-3)GlcNAc(b1-2)Man(a1-3)[Fuc(a1-2)[GalNAc(a1-3)]Gal(b1-3)GlcNAc(b1-2)Man(a1-6)]Man(b1-4)GlcNAc(b1-4)[Fuc(a1-6)]GlcNAc
In short: as §1

[15] = target: Fuc(a1-2)[GalNAc(a1-3)]Gal(b1-3)GlcNAc(b1-3)GalNAc
In short: as §1

[16] = target: Fuc(a1-2)[GalNAc(a1-3)]Gal(b1-3)GlcNAc(b1-6)GalNAc
In short: as §1

[17] = target: Fuc(a1-2)[GalNAc(a1-3)]Gal(b1-4)Glc
In short: as §1

[18] = target: Fuc(a1-2)[GalNAc(a1-3)]Gal(b1-4)GlcNAc
In short: as §1

[19] = target: Fuc(a1-2)[GalNAc(a1-3)]Gal(b1-4)GlcNAc(b1-2)Man
In short: as §1

[20] = target: Fuc(a1-2)[GalNAc(a1-3)]Gal(b1-4)GlcNAc(b1-2)Man(a1-3)[Fuc(a1-2)[GalNAc(a1-3)]Gal(b1-4)GlcNAc(b1-2)Man(a1-6)]Man(b1-4)GlcNAc(b1-4)GlcNAc
In short: as §1

[21] = target: Fuc(a1-2)[GalNAc(a1-3)]Gal(b1-4)GlcNAc(b1-2)Man(a1-3)[Fuc(a1-2)[GalNAc(a1-3)]Gal(b1-4)GlcNAc(b1-2)Man(a1-6)]Man(b1-4)GlcNAc(b1-4)[Fuc(a1-6)]GlcNAc
In short: as §1

[22] = target: Fuc(a1-2)[GalNAc(a1-3)]Gal(b1-4)GlcNAc(b1-3)Gal(b1-4)GlcNAc
In short: as §1

[23] = target: Fuc(a1-2)[GalNAc(a1-3)]Gal(b1-4)GlcNAc(b1-3)Gal(b1-4)GlcNAc(b1-3)Gal(b1-4)GlcNAc
In short: as §1

[24] = target: Fuc(a1-2)[GalNAc(a1-3)]Gal(b1-4)GlcNAc(b1-3)GalNAc
In short: as §1

[25] = target: Fuc(a1-2)[GalNAc(a1-3)]Gal(b1-4)GlcNAc(b1-3)[Fuc(a1-2)[GalNAc(a1-3)]Gal(b1-4)GlcNAc(b1-6)]GalNAc
In short: as §1

[26] = target: Fuc(a1-2)[GalNAc(a1-3)]Gal(b1-4)GlcNAc(b1-6)GalNAc
In short: as §1

[27] = target: Fuc(a1-2)[GalNAc(a1-3)]Gal(b1-4)[Fuc(a1-3)]GlcNAc
In short: as §1

[28] = target: Fuc(a1-2)[GalNAc(a1-3)]Gal(b1-4)[Fuc(a1-3)]GlcNAc(b1-3)GalNAc
In short: as §1

[29] = target: Fuc(a1-2)[GalNAc(a1-4)]Gal(b1-4)GlcNAc
In short: as §1

[30] = target: Fuc(a1-2)[GalNAc(b1-3)]Gal
In short: as §1

B1: SBD-G4S3-SBD (protein)
chain: MASIPSSASVQLDSYNYDGSTFSGKIYVKNIAYSKKVTVVYADGSDNWNNNGNIIAASFSGPISGSNYEYWTFSASVKGIKEFYIKYEVSGKTYYDNNNSANYQVSTGGGGSGGGGSGGGGSEFASIPSSASVQLDSYNYDGSTFSGKIYVKNIAYSKKVTVVYADGSDNWNNNGNIIAASFSGPISGSNYEYWTFSASVKGIKEFYIKYEVSGKTYYDNNNSANYQVST
glycan array binding signal (z-score) [1]: -0.319
glycan array binding signal (z-score) [2]: -0.369
glycan array binding signal (z-score) [3]: -0.308
glycan array binding signal (z-score) [4]: -0.359
glycan array binding signal (z-score) [5]: -0.34
glycan array binding signal (z-score) [6]: -0.41
glycan array binding signal (z-score) [7]: 0.033
glycan array binding signal (z-score) [8]: -0.371
glycan array binding signal (z-score) [9]: 0.401
glycan array binding signal (z-score) [10]: 1.17
glycan array binding signal (z-score) [11]: -0.303
glycan array binding signal (z-score) [12]: -0.354
glycan array binding signal (z-score) [13]: -0.339
glycan array binding signal (z-score) [14]: -0.403
glycan array binding signal (z-score) [15]: 0.66
glycan array binding signal (z-score) [16]: 0.142
glycan array binding signal (z-score) [17]: -0.412
glycan array binding signal (z-score) [18]: -0.347
glycan array binding signal (z-score) [19]: -0.414
glycan array binding signal (z-score) [20]: 6.16
glycan array binding signal (z-score) [21]: -0.329
glycan array binding signal (z-score) [22]: -0.377
glycan array binding signal (z-score) [23]: 0.034
glycan array binding signal (z-score) [24]: -0.37
glycan array binding signal (z-score) [25]: -0.315
glycan array binding signal (z-score) [26]: -0.365
glycan array binding signal (z-score) [27]: -0.214
glycan array binding signal (z-score) [28]: 4.46
glycan array binding signal (z-score) [29]: 0.702
glycan array binding signal (z-score) [30]: 1.26
